Data reported in PubChem BioAssay AID686978 (National Center for Advancing Translational Sciences (NCATS), 2013).
Several values for one entry are separate records, joined by “and”; a condition that tells them apart may be missing. Equal values may be shown once. Among all 420,000 compounds or so, about 64,000 (15%) were called active. This list was built around the results that the source calls inconclusive (neither active nor inactive); the mix of calls is not that of the screen. Calls come from the whole dose curve; as a rule, active = well fitted inhibition curve with a large enough effect; inconclusive = small, poorly fitted or top-dose-only effect; inactive = flat fitted curve, though single readings scatter. Potencies of inconclusive entries are doubtful fits and often do not repeat.
% is set by controls: 0 for no effect and ±100 for the full control effect; potency is the fitted concentration of half-maximal effect; tags give direction and shape of the fitted curve.

Test: qHTS for Inhibitors of human tyrosyl-DNA phosphodiesterase 1 (TDP1): qHTS in cells in absence of CPT; note: nearly all actives have a fitted effect of over 55% in size
Conditions: DT40 Tdp1-/- hTDP1 cells, no CPT, ATP luminescence, 48 h; activity change, negative = growth inhibition: at 46.2 µM (top of the series) unless noted
Outline: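 DT40 Tdp1-/-;hTDP1 cells, no CPT (DMSO vehicle only), 400 cells/well; compounds pin-transferred; ≥48 hr, 37 °C; CellTiter-Glo 30 min RT dark, luminescence read.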
For `CC1(C)Cc2c(c(N3CCOCC3)nc3sc4c(NN)ncnc4c23)CS1`, the Potency was inconclusive: 29.1 µM [inhibitor, single point]. With `COc1ccccc1NS(=O)(=O)c1cccc(C(=O)NCc2ccco2)c1` the “activity change, negative = growth inhibition” value was inactive: -22.1%. With `Cc1cc(N2CCN(C(=O)Oc3ccc([N+](=O)[O-])cc3)CC2)c2ccccc2n1` the Potency was active: 18.4 µM. For `Cc1ccc(-c2nnc(SC(C)C(=O)NCc3ccco3)n2C)cc1` (centres undefined), the “activity change, negative = growth inhibition” value was inactive: -13.5%. For `Cc1ccc(NC(=O)c2ccc(N3C(=O)C4CC=C(Cl)CC4C3=O)cc2)cc1` (centres undefined), the Potency was active: 16.4 µM. With `CNC[C@@H]1OCc2ccccc2-c2ccccc2C(=O)N([C@@H](C)CO)C[C@@H]1C` the “activity change, negative = growth inhibition” value was inactive: -28.4%. For `COc1ccc(CNC(=O)CCSCc2ccccc2Cl)c(OC)c1`, the Potency was inconclusive: 29.1 µM [inhibitor, single point]. In the case of `CC(C)C[C@H]1CNC(=O)C(=O)N1C[C@H](Cc1ccc(O)cc1)NC(=O)Cc1ccccc1`, the activity change, negative = growth inhibition was inconclusive: -32.1% [inhibitor]. For `Cc1ccc(CCN2CC(C(=O)NCCN(C)C)CC2=O)cc1` (centres undefined), the “activity change, negative = growth inhibition” value was inactive: -5.73%. With `CNc1ccc(/C=C2\CSc3ccccc3C2=O)cc1[N+](=O)[O-]` the Potency was inconclusive: 18.4 µM [inhibitor, single point]. In the case of `CCC1(c2ccc(Cl)cc2)NC(=S)N(c2ccc(C)cc2)N1` (centres undefined), the Potency was inconclusive: 20.6 µM [inhibitor, single point]. For `CCC(C)NC(=O)c1sc2nc(C)c(C(=O)Nc3ccc(C)cc3C)c(-c3ccc(Br)cc3)c2c1N` (centres undefined), the Potency was inconclusive: 18.4 µM [inhibitor, partial curve]. In the case of `CC1(C(=O)Nc2ccc3c(c2)OCCO3)CCN1C(=O)C/C=C/c1ccccc1` (centres undefined), the Potency was inconclusive: 29.1 µM [inhibitor, single point]. With `Cc1onc(C(=O)N2CCC(Cc3ccccc3)CC2)c1[N+](=O)[O-]` the Potency was inconclusive: 18.4 µM [inhibitor, partial curve]. With `COc1ccc(OC)c(-c2cc(C(=O)N3CCN(c4ncccn4)CC3)c3ccccc3n2)c1` the Potency was active: 18.4 µM. With `CC1=C(C(=O)Nc2ccc(C)c(C)c2)C2(CCCCCC2)OC1=O` the Potency was inconclusive: 20.6 µM [inhibitor, single point]. In the case of `CC(C)Sc1nnc2c3ccccc3n(C)c2n1`, the Potency was inconclusive: 22.4 µM [inhibitor, single point]. For `O=C(C[C@H]1CC[C@@H]2[C@H](COC[C@@H](O)CN2C(=O)C2CC2)O1)NCc1ccccc1Cl`, the “activity change, negative = growth inhibition” value was inactive: 4.83%. In the case of `CCN(C(=O)COC(=O)CSc1ccc([N+](=O)[O-])cc1)C1CCS(=O)(=O)C1` (centres undefined), the Potency was inconclusive: 29.1 µM [inhibitor, single point]. In the case of `CCNS(=O)(=O)c1ccc(NC(=O)c2ccc(Cn3cc(Br)cn3)o2)cc1`, the Potency was inconclusive: 20.6 µM [inhibitor, single point]. For `CCOc1ccc(NC2=NC(C)(C)N=C(N)N2)cc1`, the Potency was inconclusive: 32.6 µM [inhibitor, partial curve]. For `CCOC(=O)c1ccccc1NC(=O)COC(=O)c1ccc(OCC(=O)N2CCOCC2)c(OCC)c1`, the Potency was inconclusive: 16.4 µM [inhibitor, single point]. With `CCN1CCN(CC(=O)Nc2ccc(C(C)=O)cc2)CC1` the “activity change, negative = growth inhibition” value was inactive: 4.54%. With `Cc1ccc(NC(=O)c2cc(N3C(=O)C4CC=CCC4C3=O)ccc2N2CCCCC2)cc1` (centres undefined) the Potency was inconclusive: 16.4 µM [inhibitor, single point]. In the case of `Cc1ccc(NC(=O)c2ccccc2NC(=O)Cc2ccccc2)cc1`, the Potency was inconclusive: 29.1 µM [inhibitor, single point]. In the case of `CCc1ccc(C2C(C#N)=C(N)Oc3n[nH]c(CC(=O)OC)c32)cc1` (centres undefined), the “activity change, negative = growth inhibition” value was inactive: -4.43%. With `COc1ccc(-c2cnc(NCc3ccc(C)cc3)n2C)cc1` the Potency was inconclusive: 25.9 µM [inhibitor, single point]. With `Cc1cccc(NC(=S)NCc2ccc(F)cc2)c1C` the “activity change, negative = growth inhibition” value was inactive: -8.16%. For `NC(=O)CC(NC(=O)c1ccccc1)c1ccc(NCC2CC2)c([N+](=O)[O-])c1` (centres undefined), the Potency was inconclusive: 11.6 µM [inhibitor, partial curve]. With `O=C1OC(Cc2ccccc2)(c2ccccc2)c2ccccc21` (centres undefined) the Potency was inconclusive: 29.1 µM [inhibitor, single point]. In the case of `CCOCCCn1c(NN)nc2ccccc2c1=O`, the “activity change, negative = growth inhibition” value was inactive: -24.6%. With `Cc1ccc(S(=O)(=O)N(c2cccc(C)c2)C2CCS(=O)(=O)C2)cc1` (centres undefined) the “activity change, negative = growth inhibition” value was inactive: -4.69%. With `Cc1cc(=S)c2cccc(C)c2[nH]1` the Potency was inconclusive: 23.1 µM [inhibitor, single point]. With `O=C(c1ccc2c3n(nc2c1)-c1ccccc1CO3)N1CCOCC1` the Potency was active: 9.2 µM. In the case of `Cc1ccc(C(=O)NCCCNC(=O)c2ccco2)cc1C`, the “activity change, negative = growth inhibition” value was inactive: 3.88%. With `COc1ccc(CCNC(=O)CSc2nc3ccccc3nc2Cc2ccc(C)cc2)cc1OC` the Potency was inconclusive: 13 µM [inhibitor, partial curve, poor fit]. For `CCC1(c2ccccc2)SC(=O)NC1=O` (centres undefined), the Potency was inconclusive: 16.4 µM [inhibitor, single point]. For `O=C(Nc1ccccc1)c1cccc(Cn2cc(C(F)(F)F)ccc2=O)c1`, the Potency was active: 20.6 µM. In the case of `Cc1cccc(C)c1OCc1nc2ccccc2c(=O)n1/N=C/c1c[nH]c2ccccc12`, the Potency was inconclusive: 18.4 µM [inhibitor, single point]. For `COc1ccccc1CNC(=O)c1nn(-c2ccc(C)cc2)c(=O)c2c1c1ccccc1n2C`, the Potency was inconclusive: 23.1 µM [inhibitor, single point] and inconclusive: 20.6 µM [inhibitor, partial curve]. With `Fc1c(CSC(=S)N2CCOCC2)cccc1CSC(=S)N1CCOCC1` the Potency was inconclusive: 29.1 µM [inhibitor, partial curve, poor fit]. For `NC(=O)COC(=O)c1ccc(Cl)c(S(=O)(=O)N2CCN(c3ccc(F)cc3)CC2)c1`, the Potency was inconclusive: 29.1 µM [inhibitor, single point]. With `COc1ccc(OC)c(CNc2ncc(-c3ccc(F)cc3)n2C)c1` the Potency was inconclusive: 0.651 µM [inhibitor, full curve, poor fit]. In the case of `O=C(NCc1ccccc1)c1cccc(NC(=O)N2CCSc3ncccc32)c1`, the Potency was inconclusive: 29.1 µM [inhibitor, single point].
